The campaign covered roughly 45,000 compounds. About 200 (0.44%) were called active. Inconclusive results (about 7%) are left out. The call rests on the fitted dose curve; in most records, active means well fitted activation curve with a large enough effect; inconclusive means small, poorly fitted or top-dose-only effect; inactive means no such curve, though single readings can be large or run the other way. The list shows a part of the results.
Experiment: qHTS of TDP-43 Inhibitors: NCGC Sytravon Library Screen; further: nearly all actives have a fitted effect of over 55% in size; on growth rescue (activation): 0% is about no effect
Conditions: yeast TDP-43 toxicity rescue, BacTiter-Glo growth, 24 h; series mostly up to 46.1 µM; growth rescue (activation): at the top concentration
Method in brief: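 TDP-43-expressing yeast, pregrown in raffinose, seeded at OD600 0.02 in galactose medium with compound for 24 hr at 30 deg C. Growth read by BacTiter-Glo luminescence, so rescue of toxicity appears as activation.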
Potency means the concentration at half of the fitted maximal effect.

Structure (SMILES)	growth rescue (activation)	Potency
COc1ccc(NC(=O)c2cc(C3CCCCN3C(=O)OCC(C)C)on2)c(C)c1 (configuration not stated)	inactive: 21.8%	–
CC1(c2ccc(OC(F)F)cc2)NC(=O)N(/N=C/c2c(O)ccc3ccccc23)C1=O (configuration not stated)	inactive: -40%	–
Cc1cc(N)n(-c2nc3ccccc3s2)n1	inactive: -3.29%	–
CN1CCN(C(=S)NC(=O)c2ccc(Br)cc2)CC1	inactive: -0.8%	–
CCOC(=O)CSc1nnc(COc2cccc(C)c2)o1	inactive: 12.1%	–
CC(=O)Nc1ccc(CN(C)c2c(C)nc3ccc(C(=O)NCCCn4ccnc4)cn23)cc1	inactive: -0.197%	–
CCCCC(C)n1[nH]c(=O)c2c(C)cc(C)nc21 (configuration not stated)	inactive: -7.22%	–
CC(C)C(O)(C#CCN1CCCCC1)C(C)C	inactive: 0.665%	–
CN1CCN(S(=O)(=O)c2ccc(Oc3ccc(F)cc3Br)nc2)CC1	inactive: 33.7%	–
COc1ccc(C2c3ccc(O)cc3Oc3ncn(CCN4CCOCC4)c(=N)c32)cc1 (configuration not stated)	inactive: -45.5%	–
CCCCn1c(=O)[nH]c(=O)c2c1nc(-c1ccc(C)c([N+](=O)[O-])c1)n2CC	inactive: 12.5%	–
Cc1ccc2nc(/C(C#N)=C/c3ccc(O)c(O)c3)[nH]c2c1	inactive: 2.59%	–
N[C@@H](Cc1ccccc1)C(=O)N1CCC(C(=O)N[C@@H](Cc2c[nH]c3ccccc23)C(=O)O)CC1	inactive: 7.94%	–
CCc1nc2c(OCc3ccc(F)c(F)c3)cccn2c1N(C)C(=O)c1ccncc1	inactive: 10.3%	–
CSc1ncc(CN2CCN(CC=C(C)C)C(CCO)C2)cn1 (configuration not stated)	inactive: -5.79%	–
CCc1nc2ccc(C(=O)NCCc3ccccn3)cn2c1N(CC)CCOC	inactive: -8.01%	–
O=C(CCc1ccc(O)c(O)c1)NNC(=S)Nc1ccc(Br)cc1Cl	inactive: -8.9%	–
Cc1ccccc1-n1c(SCC(=O)NC2CCS(=O)(=O)C2)nc2ccccc2c1=O (configuration not stated)	inactive: 28.2%	–
Nc1nc(SCC(=O)c2c(N)n(C3CC3)c(=O)[nH]c2=O)n[nH]1	inactive: 30.5%	–
CC(C)(C)Nc1nc(-c2ccc3c(c2)CCN3C(=O)C2CC2)cs1	inactive: 19.5%	–
C=CCN(C(=O)Cc1cccs1)c1nc(-c2ccc(S(C)(=O)=O)cc2)cs1	inactive: 8.13%	–
CCCN(CC1CC1)C(=S)Nc1ccccc1F	inactive: 11%	–

Structure (SMILES)	growth rescue (activation)	Potency
CCNC(=S)N(CCN(CC)CC)Cc1cc2cc3c(cc2[nH]c1=O)OCCO3	inactive: 2.37%	–
COc1cccc(C2CC(c3cccs3)=NN2C(=O)CCC(=O)O)c1OC (configuration not stated)	inactive: 6.25%	–
CSCCC(NC(=O)C1CCC(C)CC1)C(=O)NCCN1CCC(C)CC1 (configuration not stated)	inactive: -10.8%	–
COCCn1c(SCC(=O)NC2CCCC2)nnc1-c1ccco1	inactive: -0.415%	–
O=C(CSc1nc(-c2ccc(F)cc2)cc(C(F)(F)F)n1)Nc1ccc2c(c1)OCO2	inactive: 16.1%	–
O=C(COC(=O)/C=C/c1cccs1)Nc1ccccc1Cl	inactive: 3.67%	–
O=[N+]([O-])c1ccc(/C=N/n2c(CO)nc3ccccc32)s1	inactive: -12.5%	–
Cc1ccc(C(=O)N[C@H](C(=O)N2CCN(c3ccccc3F)CC2)C(C)C)cc1	inactive: -7.16%	–
CC1CN(c2nc3ccccc3nc2NS(=O)(=O)c2ccccc2)CC(C)O1 (configuration not stated)	inactive: 29.1%	–
Cc1ccc(NC(=O)Cn2c(O)c(N=NC(=O)c3ccncc3)c3ccccc32)cc1	inactive: 9.69%	–
CCN1/C(=C2/OC(=S)N(C)C2=O)Sc2ccccc21	inactive: -20.8%	–
Cc1ccc(Cl)cc1-c1cc(C(=O)NCC2CCCCC2)[nH]n1	inactive: 12.8%	–
CCn1c(Cc2ccccc2)nnc1SCC(=O)Nc1ccccc1O	inactive: -14.4%	–
COCCNC(=O)COc1ccccc1Cl	inactive: 9.29%	–
Cc1cccc(CNc2ncc(-c3cccc([N+](=O)[O-])c3)n2C)c1	inactive: -1.66%	–
CCCS(=O)(=O)c1nc(S(=O)(=O)c2ccc(C)cc2)c(N(CC)CC)s1	inactive: -14%	–
Cc1ccc(NC(=O)CSc2nnc(CNC(=O)c3ccco3)n2C)c(C)c1	inactive: -9.29%	–
COc1cc(OC)nc(C(NC(=O)C2CCN(Cc3ccc(N(C)C)cc3)CC2)c2ccc(F)cc2)n1 (configuration not stated)	inactive: -1.49%	–
CCOc1ncccc1C(=O)OCC(=O)Nc1ccc(C)c(S(=O)(=O)N(C)C)c1	inactive: 11.6%	–
COc1ccc(C(=O)Nc2cc3c(oc2=O)CCCC3=O)cc1	inactive: -17.4%	–
O=C(Nc1ccc(Br)cc1)C1C2C=CC3(O2)C1C(=O)N(CCN1CCOCC1)C3C(=O)NC1CCCCC1 (configuration not stated)	inactive: 16.7%	–
CCCCNC(=O)C1(C)CCN1C(=O)c1ccc(F)cc1Cl (configuration not stated)	inactive: 1.36%	–

Structure (SMILES)	growth rescue (activation)	Potency
CCCCCc1ccc(-c2ccc(/C=C/C(N)=O)cc2)nc1	inactive: 17.8%	–
Cc1ccc(S(=O)(=O)N2CCOCC2)cc1NC(=O)COC(=O)c1cnc(Cl)c(Cl)c1	inactive: 6.57%	–
Cc1ccnc2nc(C(=O)OCC(=O)Nc3ccc4c(c3)OCCO4)nn12	inactive: 7.25%	–
CCOC(=O)CSc1n[nH]c(NS(=O)(=O)c2ccccc2C(F)(F)F)n1	inactive: -14.3%	–
COc1cc(C2NC(=O)CS2)cc(OC)c1OC (configuration not stated)	inactive: 4.43%	–
Cc1cc(C)n2nc(C(=O)Nc3ccc(S(=O)(=O)N4CCCC4)cc3)nc2n1	inactive: 29.9%	–
COCCN(C(=S)Nc1cccc(OC)c1)C1CCN(C(C)C)CC1	inactive: -1.07%	–
Cc1cc(C(=O)CN2C(=O)NC(C)(c3cc(F)ccc3F)C2=O)c(C)n1C1CC1 (configuration not stated)	inactive: -28%	–
COC(=O)c1cc2ccsc2n1CC(=O)N(C)C1CCCCC1	inactive: 9.09%	–
COCCCNC(=O)CN(CCc1ccccc1)S(=O)(=O)c1ccccc1	inactive: -2.31%	–
CCOCCCNCc1c(Cl)cccc1Cl	inactive: -3.94%	–
CCNCc1cc(Cl)c(OCc2ccccc2)c(OCC)c1	inactive: -3.6%	–
Cc1ccc2c(COC(=O)c3ccccc3OC(F)F)cc(=O)oc2c1	inactive: 1.74%	–
Cc1ccc(S(=O)(=O)NCC(=O)N/N=C/c2ccccc2O)cc1	inactive: -13.3%	–
O=C(Nc1cccc(NC(=O)c2cccs2)c1)c1ccc(Br)cc1	inactive: 12.6%	–
Cc1cccc(S(=O)(=O)Nc2ccc3c(c2)OCCO3)c1	inactive: 6.79%	–
COc1ccc(NC(=O)CC2CC3CCC2C3)cn1 (configuration not stated)	inactive: 18.4%	–
CCCC(=O)C1=C(O)C(C(=O)OC)C(C)(C)CC1=Nc1ccc(OC)cc1 (configuration not stated)	inactive: 8.48%	–
O=C(Nc1ccc2[nH]c(=O)[nH]c2c1)c1cc(F)c(F)cc1Cl	inactive: -1.47%	–
CSc1nc2ccccc2n1CC(=O)Nc1ccccc1	inactive: 7.05%	–
COC(=O)CC1=C(C(=O)OC)C(c2ccc3c(c2)OCO3)C(C#N)=C(N)O1 (configuration not stated)	inactive: 1.6%	–
NC(=O)C1Cc2ccccc2CN1C(=O)c1cccc(Oc2ccccc2)c1 (configuration not stated)	inactive: 16.5%	–

Structure (SMILES)	growth rescue (activation)	Potency
O=C(CCNS(=O)(=O)c1cccc2nonc12)NC1CCCCC1	inactive: 4.69%	–
CCN(CC(=O)N1CCC(C(N)=O)CC1)S(=O)(=O)c1cc(Cl)ccc1Cl	inactive: -2.24%	–
Cc1[nH]n(-c2ccc([N+](=O)[O-])cc2)c(=O)c1C=NCCc1c(C)[nH]c2ccccc12	inactive: -14.6%	–
CN(CC(=O)Nc1ccc(S(=O)(=O)N2CCCC2)cc1)Cc1cccc(Cl)c1Cl	inactive: -6.22%	–
COc1cc(OC)c(S(=O)(=O)Nc2ccc(C(=O)N3CCCC3)cc2)cc1NC(C)=O	inactive: -6.19%	–
O=C(CN1C(=O)NC2(CCCCCC2)C1=O)NCc1ccc(F)cc1	inactive: 4.65%	–
CC1CCN(c2ccccc2NC(=O)c2cc3ccccc3o2)CC1	inactive: 15.6%	–
Cc1ccc(-c2csc(NC(=O)/C=C/c3ccco3)c2C(=O)O)cc1	inactive: -13%	–
Cc1ccc(C(=O)c2ccccc2C(=O)OCC(=O)NCC2CCCO2)cc1 (configuration not stated)	inactive: 23.4%	–
O=C(CNC(=O)/C(=C/c1ccccc1)NC(=O)c1ccc(Br)cc1)OCc1ccccc1	inactive: 9.58%	–
CCOc1ccc(S(=O)(=O)N2CCC(C(=O)Nc3cccc(NC(C)=O)c3)CC2)cc1	inactive: -14.9%	–
COc1ccc(N2CC(C(=O)N/N=C/c3ccc(C)cc3)CC2=O)cc1 (configuration not stated)	inactive: 20.8%	–
OC(c1ccccc1)(c1ccccc1)C1CCN(C(=S)NC2CCCC2)CC1	inactive: 14.3%	–
Cc1nc2ccccc2n1CCN1CCOCC1	inactive: 3.64%	–
COc1ccc(Nc2nc3c([nH]2)c(=O)[nH]c(=O)n3C)cc1	inactive: 11.6%	–
Cc1nc([N+](=O)[O-])c(Br)n1CC(=O)c1cccc([N+](=O)[O-])c1	inactive: 4.64%	–
COc1cccc(-c2cc(NC=O)c3ncc(-c4ccc(OC)c(OC)c4)n3c2)c1	inactive: 29.3%	–
Cc1n[nH]c(=O)nc1N/N=C/c1ccc(O)c([N+](=O)[O-])c1	inactive: -15.9%	–
FC(F)(F)c1cccc(-c2cc3nc(NCCOc4ccccc4)ccn3n2)c1	inactive: 14%	–
CCOC(=O)c1sc2nc(C)nc(NC3CCC(O)CC3)c2c1C (configuration not stated)	inactive: -6.69%	–
O=CN1CCN(C(=O)c2ccc(-c3nc4ccccc4s3)s2)CC1	inactive: 4.3%	–
O=C(N/N=C/c1ccc(OC(=O)c2cccc(Br)c2)cc1)c1cccnc1	inactive: -11.9%	–

Structure (SMILES)	growth rescue (activation)	Potency
O/N=C/c1ccc(OCc2ccccc2)c(Br)c1	–	active: 11.2 µM
CC(=O)c1c(N2CCN(c3ccc(F)cc3)CC2)nc(=S)n(Cc2ccccc2)c1C	inactive: -16.1%	–
Cc1cccc(OCC(=O)NNS(=O)(=O)c2ccccc2F)c1	inactive: 0.283%	–
Nn1cnnc1N/N=C/c1cccc(Cl)c1Cl	inactive: 7.13%	–
Cc1ccc([N+](=O)[O-])cc1-c1ccc(/C=C(\C#N)c2[nH]nc(N)c2C#N)o1	inactive: 16.4%	–
O=C(CNC(=O)c1cccs1)OCc1c(F)cccc1Cl	inactive: 27.8%	–
C=CCOc1ccc(C2NC(=S)NC(c3ccccc3)=C2C(C)=O)cc1OC (configuration not stated)	inactive: 10.5%	–
Cc1ccccc1C(=O)N1CCc2cc(-c3csc(NC(=O)CN4CCCC4)n3)ccc21	inactive: 13.5%	–
C/C(=N\NC(=O)c1ccc(O)cc1)c1ccc2c(c1)Nc1ccccc1S2	inactive: 19.3%	–
CCc1nnc(NC(=O)CSc2nnc(CNC(=O)c3ccccc3F)n2C)s1	inactive: -1.86%	–
CCn1c(=O)n(CC(=O)Nc2ccc(F)cc2)c(=O)c2ccccc21	inactive: -8.51%	–
O=C(COC(=O)COc1ccc(Br)cc1)NCC1CCCO1 (configuration not stated)	inactive: -18.1%	–
CC(C)(C)c1ccc(C(=O)NCCC(=O)Nc2ccc3c(c2)OCCO3)cc1	inactive: 27.1%	–
CCCCCCCCc1nnc(N)s1	inactive: 26.7%	–
S=C(NCc1ccco1)Nc1ccccn1	inactive: 13.8%	–
CCc1nc2c(OCCn3cccc3)cccn2c1N(C)C(=O)C1CC1	inactive: -6.49%	–
O=C(Cn1nnc(-c2ccccc2)n1)N/N=C/c1ccco1	inactive: 4.2%	–
CCCNC(=O)C1(C)CCN(C(=O)c2ccc3ccccc3c2)C1 (configuration not stated)	inactive: 1.98%	–
CCN(CC)C(=O)c1sc2nc(-c3ccccn3)[nH]c(=O)c2c1C	inactive: 3.8%	–
